Most values come without repeats; read them as rough.
Assays:
[1] = tested on: CHO-K1; assay: micronucleus frequency (% of nucleated events); higher = more micronuclei (genotoxic)
[2] = tested on: CHO-K1; assay: hypodiploid nuclei frequency (% of nucleated events); higher = more hypodiploid events (aneugenic)
Procedure: (§1)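 Flow-cytometric in vitro micronucleus assay (Litron MicroFlow) in CHO-K1 cells in 96-well plates, 19 concentrations (4.5-200 µM, n=1 per concentration). Without S9, cells were exposed for 24 h and sampled at 48 h. With Aroclor 1254-induced rat liver S9, cells were exposed for 3-4 h and sampled at 27-28 h. Read-outs are %MN and %hypodiploid nuclei relative to nucleated events, and relative survival as the nuclei-to-bead ratio versus the 1% DMSO vehicle control (x100).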

[3] = tested on: CHO-K1; assay: relative survival (nuclei to bead ratio vs DMSO control) (% of vehicle control); higher = more surviving cells
Procedure: as §1
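For hypodiploid nuclei frequency (% of nucleated events) in this document: hypodiploid nuclei gated on a flow cytometer with 488 nm excitation after SYTOX Green staining, cultures at 37 °C, positive controls vinblastine without S9 and cyclophosphamide with S9.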
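For micronucleus frequency (% of nucleated events) in this document: cells lysed with nuclei stained by SYTOX Green, then micronucleus-gated events counted against nucleated events by flow cytometry with 488 nm excitation.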
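For relative survival (nuclei to bead ratio vs DMSO control) in this document: Lysed-cell nuclei stained with SYTOX Green and counted against counting beads by flow cytometry at 488 nm excitation, with vinblastine (no S9) and cyclophosphamide (plus S9) as positive controls.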

CCOCCOCCO [2-(2-Ethoxyethoxy)ethanol]
Details | hypodiploid nuclei frequency, [2] [%] | micronucleus frequency, [1] [%] | relative survival, [3]
concentration: 4.5 (µM), S9 metabolic activation: with S9, exposure time: 3-4 hours | 0.3 | 0.96 | 137
concentration: 4.5 (µM), S9 metabolic activation: without S9, exposure time: 24 hours | 1.1 | 1.04 | 96.4
concentration: 5.63 (µM), S9 metabolic activation: with S9, exposure time: 3-4 hours | 0.16 | 0.98 | 144
concentration: 5.63 (µM), S9 metabolic activation: without S9, exposure time: 24 hours | 1.24 | 0.98 | 107
concentration: 7.04 (µM), S9 metabolic activation: with S9, exposure time: 3-4 hours | 0.26 | 1.02 | 115
concentration: 7.04 (µM), S9 metabolic activation: without S9, exposure time: 24 hours | 1.02 | 1.3 | 82.1
concentration: 8.8 (µM), S9 metabolic activation: with S9, exposure time: 3-4 hours | 0.24 | 0.92 | 99.9
concentration: 8.8 (µM), S9 metabolic activation: without S9, exposure time: 24 hours | 0.88 | 1.5 | 101
concentration: 11 (µM), S9 metabolic activation: with S9, exposure time: 3-4 hours | 0.26 | 0.8 | 107
concentration: 11 (µM), S9 metabolic activation: without S9, exposure time: 24 hours | 0.92 | 1.42 | 102
concentration: 13.7 (µM), S9 metabolic activation: with S9, exposure time: 3-4 hours | 0.2 | 0.9 | 102
concentration: 13.7 (µM), S9 metabolic activation: without S9, exposure time: 24 hours | 0.7 | 1.22 | 78.7
concentration: 17.2 (µM), S9 metabolic activation: with S9, exposure time: 3-4 hours | 0.18 | 1.22 | 94.6
concentration: 17.2 (µM), S9 metabolic activation: without S9, exposure time: 24 hours | 0.76 | 1.34 | 80.9
concentration: 21.5 (µM), S9 metabolic activation: with S9, exposure time: 3-4 hours | 0.22 | 0.84 | 93.7
concentration: 21.5 (µM), S9 metabolic activation: without S9, exposure time: 24 hours | 1.02 | 1.46 | 94.8
concentration: 26.8 (µM), S9 metabolic activation: with S9, exposure time: 3-4 hours | 0.42 | 1.64 | 129
concentration: 26.8 (µM), S9 metabolic activation: without S9, exposure time: 24 hours | 1.16 | 1.08 | 83
concentration: 33.6 (µM), S9 metabolic activation: with S9, exposure time: 3-4 hours | 0.32 | 1.7 | 122
concentration: 33.6 (µM), S9 metabolic activation: without S9, exposure time: 24 hours | 1.02 | 0.96 | 92.8
concentration: 41.9 (µM), S9 metabolic activation: with S9, exposure time: 3-4 hours | 0.26 | 1.32 | 121
concentration: 41.9 (µM), S9 metabolic activation: without S9, exposure time: 24 hours | 0.82 | 1.06 | 111
concentration: 52.4 (µM), S9 metabolic activation: with S9, exposure time: 3-4 hours | 0.34 | 1.36 | 125
concentration: 52.4 (µM), S9 metabolic activation: without S9, exposure time: 24 hours | 1 | 1.32 | 98.5
concentration: 65.5 (µM), S9 metabolic activation: with S9, exposure time: 3-4 hours | 0.34 | 1.76 | 102
concentration: 65.5 (µM), S9 metabolic activation: without S9, exposure time: 24 hours | 0.9 | 1.3 | 90.6
concentration: 81.9 (µM), S9 metabolic activation: with S9, exposure time: 3-4 hours | 0.34 | 1.74 | 104
concentration: 81.9 (µM), S9 metabolic activation: without S9, exposure time: 24 hours | 1 | 1.22 | 85.2
concentration: 102 (µM), S9 metabolic activation: with S9, exposure time: 3-4 hours | 0.24 | 1.7 | 115
concentration: 102 (µM), S9 metabolic activation: without S9, exposure time: 24 hours | 1.24 | 1.34 | 87.5
concentration: 128 (µM), S9 metabolic activation: with S9, exposure time: 3-4 hours | 0.3 | 1.8 | 105
concentration: 128 (µM), S9 metabolic activation: without S9, exposure time: 24 hours | 1.3 | 1.9 | 90.6
concentration: 160 (µM), S9 metabolic activation: with S9, exposure time: 3-4 hours | 0.32 | 1.34 | 99.9
concentration: 160 (µM), S9 metabolic activation: without S9, exposure time: 24 hours | 1.74 | 2.12 | 92.8
concentration: 200 (µM), S9 metabolic activation: with S9, exposure time: 3-4 hours | 0.32 | 2.1 | 105
concentration: 200 (µM), S9 metabolic activation: without S9, exposure time: 24 hours | 1.38 | 2.56 | 79.5

— the supplement of paper PMC9151546
